Experimental data from the RNAGym collection of RNA variant scans (doi:10.7554/elife.90254).
The source gives no read counts; variants with many changes may rest on few reads.

B1: LINE1-mini (parent)
chain: GGCAGAGCUCAACACAGCGUGGCAAAGUGGCUGUGGCUAGACUGCC

Variants of: B1
Experiment: self-cleavage, relative activity (ratio to wild type); higher = more cleavage; in vitro, sequencing; the parent is a self-cleaving ribozyme

Row | Variant | self-cleavage
1 | GAAAGAACUCAACACUCCGUGGCAAAGCGGCUGUGGCUACACUGCC | 1.49
2 | GAAAGAGCUCAACACAGCUUGGCAAAGUGGCUGUGGCUAGACUGUC | 1.22
3 | GAAAGAGCUCAACACAGCGUGGCAAAGUGGCUUUGGCUAGAGCGCC | 0.46
4 | GAAAGAGCUCAACACAGCGUGGCAAAGUGGCUGUUGCUAGACUGCC | 1.75
5 | GAGAGAGCUCAACACAGCGUGGCAAGGUGGCUGUGGCUAGACUGCC | 0.64
6 | GAGAGAGCUCAACACAGCGUGGCAAACUGGCUGUGGCUAGAGUGCC | 0.1
7 | GAGAGAGCCCAACACAGCGUGGCAAAGUUGCUGUGGCUAGACUGCC | 0.1
8 | GAUUGAGCUCAACACAGCGUGGCAAAGUGACUGUGGCUAGACUGCC | 0.23
9 | GAUAGUGCUGAAUACAGCGUGGAAAAGUGGCUGUGGCUAGACUGCC | 0.04
10 | GAUAGAGCUCAUAACAACGUGCCAAAGUGGAUGUGGCUAGACUGCC | 0.04
11 | GAUAGAGCUCAACACGGCGUUGCAAAGUGGCUGCUUCUAGACUGCC | 0.34
12 | GAUAGAGUUCAACACAGCGUGGCAAAGUGGGUGUGGCUAGACUGCC | 0.45
13 | GAUAGAGCUCAAAACAGUGUGGCAAAGCGGCUGUGGCUAGACUGCC | 0.11
14 | GAUAGAGCUCAACAAAUCGUGGCAAAGUGGCUCUGGCUAGACUGCC | 0.18
15 | GAUACAGCUCAACACAGCGUGGCAAAGAGGCUGUGGUUAGACUGCC | 0.46
16 | GAUAGAGCUCAACACAACGUGGCAAAGUGGCUGUGGCUAUACUGCC | 0.13
17 | GAUAGAGCACAACACAGCGUGGCAAAGUGGCUGUGGCUCGACUGCC | 0.22
18 | GACAGAGAUCAACCCAGCGUGGCAAAGUGGCUGUGGCUAGACUGCC | 0.2
19 | GACAGAGAUCAACACAGCGUGGAAAAGUGGCUGUGGCUAUACUGCC | 0.07
20 | GACAGAGAUCAACACAACGUGGCAAAGUGGCUGGGGCUAGACUGCC | 0.21
21 | GACAGAGAUCAACACAGCGUGGCAAAGUGGCAGUGGAUAGACUGCC | 0.24
22 | GACAGAGGUCAGCCCAGCGUGGCAAAGUGGCUGUGGCUGGACUGCC | 0.01
23 | GACAGAGGUAAACACAGCGCGGUAAAGUGGCUGUGGCAAGACUGCC | 0.02

Row | Variant | self-cleavage
24 | GACAGAGGUCAAAACAGAGUGGCAAAGUGGCUGUGGCUCGACUGCC | 0.15
25 | GACAGAGGUCAACACAGCGUGGCAAAGUUGCUGGGGCUAGACUGCC | 0.03
26 | GACAGAGUUCACCACAGCGUGGCAAAGUGGCUUUGGCUAGACUGCC | 0.12
27 | GACAGAGUUCAUCACAGCGUGGCAAAGUGGCUGUGGCUAGACUGCC | 0.07
28 | GACAGAGUUCAACCCAGCGUCGCAAAGUGGCAGUGGCUAUACUGCC | 0.07
29 | GACAGAGUUAAGCACAGCGUGGCAAAGUGGCUGUGGUUAUACUGCC | 0.02
30 | GACAGAGUUCAAGUCAGCGUGGCAAAGUGUCUGUGGCUAGACUGCG | 0.68
31 | GACAGAGCUAAACUGAGCGUGGCAAAGUGGCUGUGGCUAGACUGCC | 0.04
32 | GACAGAGCUAAACACAGCGUGGCAAAGUUGCUGUGGCUAGACUGCG | 0.13
33 | GACAGAGCUAAACACAGCGUGGCAAAGUGCCUGAGGCUAGACUGCC | 0.07
34 | GACAGAGCUAAACACAGCGUGGCAAAGUGCCUGUGGCUAGACAGCC | 0.02
35 | GACAGAGCUGAACACUGCGUGGCAAAGUGGCUGUGGCUAGACUGCC | 0.02
36 | GACAGAGCUGAACACAGCGUGGCUAAGUGGCUGUGGCUAGACUGCC | 0.06
37 | GACAGAGCUGAACACAGCGUGGCAAAAUGGCUGUGGCUAGACUGCC | 0.09
38 | GACAGAGCUGAACACAGCGUGGCAAAGAGGCUGUGUCUAGACAGCC | 0
39 | GACAGAGCUUAACACCGCGUGGCAAAGUGGGUGAGGCUAGACUGCC | 0.05
40 | GACAGAGCUUAACACCGCGUGGCAAAGUGGCUUUGGCUAGACUGCC | 0.02
41 | GACAGAGCUUAACAUAGCGUGGCAACGUGGCUGUGGCUAAACUGCC | 0.03
42 | GACAGAGCUUAACACAGCGUGGAAAUGUGGCUGUUGGUAGACUGCC | 0.07
43 | GACAGAGCUUAACACAGCGUGGCAAAGUGGCUGUGGCUAGACUGAC | 0.09
44 | GACAGAGCUUAACACAGCGUGGCAAAGUGGCUGUGGCUAGACUGCA | 0.21
45 | GACAGAGCUUAACACAGCAAGCCAAAGUGGCUGUAGCUAGACUGCC | 0
46 | GACAGAGCUUAACACAGCGUGGCAAAGUGGCAGUGGGUAGACUGCC | 0.08

Row | Variant | self-cleavage
47 | GACAGAGCUCAAAUCAGCGUGGAAAAGUGGCUGUGGCUAGACUUCC | 0.61
48 | GACAGAGCUCAAAACGGCGUGGCAAACUGGCUGGUGCUAGACUGCC | 0.02
49 | GACAGAGCUCAAAACAGCGUGGCGAAGUGACUGUGGCAAGACUGCC | 0.11
50 | GACAGAGCUCAAAAGAGCGUGGCAAAGUGGCUGUGGCUACACUGCC | 0.01
51 | GACAGAGCUCAAAACAGCGUGGUAAAGUGGCUGUGGCUUGACUGUC | 0.58
52 | GACAGAGCUCAAAACAUCGUGGCACAGUGCCUGUGGCUAGCCUGCU | 0.14
53 | GACAGAGCUCAAAACAGCGUGACAAAGUGGCUGUGGCUAGACUGCU | 0.17
54 | GACAGAGCUCAAGACAGCGUGGCAACGUGGCUGUGGCUAGACUACC | 0.16
55 | GACAGAGCUCAAUGCAGCGUUGCAAAGUGGCUGUGGCUAGACGGGC | 0.13
56 | GACAGAGCUCAACAACGCAUGGCAAAGUGGCUGUGGCUAAACUGUC | 0.07
57 | GACAGAGCUCAACAAAGCGUGACAAAGUGGCUGUGGCUAGACUGCC | 0.11
58 | GACAGAGCUCAACAAAGCGUGGCAAAGUGGCGGUGGCUAGACUCCC | 0.16
59 | GACAGAGCUCAACAGAGCGUGGCAAUGUGGCUGUGGCUAGACUGCC | 0.01
60 | GACAGAGCUCAACAGAGAGUGGCAAAGUGGCUGUGCCUAGACCGCC | 0.01
61 | GACAGAGCUCAACAGAGCGUGGGAAAGUGGCUGUGGCUAGACUGCC | 0.08
62 | GACAGAGCUCAACAGAGCGGGGCAAAGUGGCUGUGGCUAGACUGCC | 0.05
63 | GACAGAGCUCAACAUGGCGUGGCAAAGUGGCUGUGGCUAGACUGCC | 0.55
64 | GACAGAGCUCAACAUAGCGUGGCAAAGUGGCUGUGGCUAGUCUGCC | 0.07
65 | GACAGAGCUCAACAUAGCGUGGAAAAGUGGCUGUGGCUACUCUGCC | 0.23
66 | GACAGAGCUCAACAUAGCGUAGCAAAGUGACUGUGGUUCGAAUGCC | 0.06
67 | GACAGAGCUCAACAUAGCGUUGCAAAGUGGCUGUGGCUAGACUGCC | 0.73
68 | GACAGAGCUCAACACAGAGUGGCAAAGUUGCUGUGGCUCGACUGCC | 0.15
69 | GACAGAGCUCAACACAGAGUGGCAAAGUGGCUUUGGCUAGACUGCC | 0.02

Row | Variant | self-cleavage
70 | GACAGAGCUCAACACAGAGUGGCAAAGUGGCUGUGGCUAAACUGCC | 0.06
71 | GACAGAGCUCAACACAGGGUGCCAAAUUGGCUGUGGCUAGACUGCC | 0.03
72 | GACAGAGCUCAACACAGGGUGGCAAAGUGGCUGCAGCUAGACUGCC | 0.18
73 | GACAGAGCUCAACACAGUGUGGCAAACUGGCUGUGGCUAGACUGCC | 0.09
74 | GACAGAGCUCAACACAGUGUGGCAAAGUGGCUGAGGCUAGACUGCC | 0.03
75 | GACAGAGCUCAACACAGCGUGGAAAAGUGGCUGUGGCUAGUAUGCC | 0.19
76 | GACAGAGCUCAACACAGCGUGGAAAAGUGGCUGUGGUUAGACUGUC | 0.01
77 | GACAGAGCUCAACACAGCGUGGAAAAGUGGCUGUCGCUAGACUGCC | 0.05
78 | GACAGAGCUCAACACAGCGUGGGAAAGUGGCUGUGGCUGGACUGCC | 0.3
79 | GACAGAGCUCAACACAGCGUGGGAAAGGGGCUGUGGCUAGACUGCA | 0.63
80 | GACAGAGCUCAACACAGCGUGGUAAAGUGGCUGUGGCUAGAUUGCC | 0.57
81 | GACAGAGCUCAACACAGCGUGGUAAAGUGGCUGUGGCUAGACUGCA | 0.82
82 | GACAGAGCUCAACACAGCGUGGCAAAGUGGAUGUGGCUAGACUGGC | 0.41
83 | GACAGAGCUCAACACAGCGUGGCAAAGUGGAUGUGGCUAGACCGCC | 0.24
84 | GACAGAGCUCAACACAGCGUGGCAAAGUGGCUGUGGAUAGACCGAC | 0.35
85 | GACAGAGCUCAACACAGCGUGGCAAAGUGGCUGUGGGUAUACUGCC | 0.24
86 | GACAGAGCUCAACACAGCGUGGCAAAGUGGCUGUGGGUAGACUACC | 0.3
87 | GACAAGGCUCAACAUAGCGUGGCAAAGUGGCUGUGGCUAGACUGGC | 0.54
88 | GACAAGGCUCAACACAGCGUGGCAAAGUGGCUGUGUCUCGCCUGGC | 0.11
89 | GACAAAGCUCAACACAGCGUGGCUAAGUGGCUGCGGCUAGACUGCC | 0.17
90 | GACAAAGCUCAAAUCAGCGUGGCAAAGUAGUUGUGGCUAGACUGCC | 0.6
91 | GACAAAGCUCAAGACAGCGUGGCAAAGUGGCUAAGGCUAGACUGCC | 0.77
92 | GACACAGCUCGACACAGCGUCGCAAAGUGGCUGUGGCUAGACUGCC | 0.03

Row | Variant | self-cleavage
93 | GACACAGCUCACCACAGCGUGUCAAAGAGGCUGUGGCUCGACUGCU | 0.01
94 | GACACAGCUCAACACAGCGUGGCUAUGAGGCUGUGGCUAGACUGCC | 0.08
95 | GACACAGUUCAAUACAGCGUGGCAAAGCGGCAGUGGCUGGACUGCC | 0.11
96 | GACACAGCUCAAAACAGCGUGGGAAAGUGGCUGUGGCGAGACUGCC | 0.08
97 | GACACAGCUCAAGACAGCGAGGCAAAGUGGCUGUGGCUAGACUGCC | 0.02
98 | GACACAGCUCAACACAGCGUGGUAAAGUGGCUGUGGCUAGACUGCC | 0.02
99 | GACACAACUUAACACAGCGUGGUAAAGUGGCUGUGGCUAGAGUGCC | 0.11
100 | GACACAGCUCAACACACCGUGGCAAAGUGGCUGGGUCUAGACUGCC | 0.03
101 | GACACAGCUCAACACAGCGUGGCAAAUUGGCUGUGGCUAGACUGCC | 0.1
102 | GACACAGCUCAACACAGCGUGGCAAAGUGGCUUUGGCUAGACUGCC | 0.31
103 | GACACAGCUCAACACAGCGUGGCAAAGUGGCUGUGUCUAAACGGCC | 0.04
104 | GACACAGCUCAACACAGCGUGGCAAAGUGGCUGUGGCUAUACUGCC | 0.02
105 | GACAUAGCUCAACGCAGUGUGGCAAAGCGGCUGUUGUUAGACUGCU | 0.05
106 | GACAUAGAUCAACACAGCGUGGCAAACUGGCUGUGGCUAGACUGCC | 0.14
107 | GACAUAGUUCAACACAGCGUGGCAAAGUGGCUGUGUCUAGACUGCC | 0.19
108 | GACAUAGCUCAAGACAGCGUGGCAAAGUGGCUGUGGCUCGACUGCC | 0.22
109 | GACAUAGCUCAACAAAGCGUGGCAAAGUGACUGUGGCUAGACUGCC | 0.33
110 | GACAUAGCUCAACACAGCGUGGCAAAGUGGCUGUGGAGGGACUGCC | 0.02
111 | GACAUAGCUCAACACAGCGUGGCAAAGUGGCUGUGGGUAGACUGCC | 0.1
112 | GACAUAGCUCAACACAGCGUGGCAAAGUGGCUGUGGCUAGAGUGCC | 0.15
